Assay results: patent publication US20210213102A1 (Innovent, published 2021)

T1: human IL-2Rβ (Uniprot P14784, aa27-240) with C-terminal avi tag and six-histidine tag (human, UniProt P14784 27-240)
T1 construct: range 27-240; Expressed in 293F cells; monomer peak collected; also called CD122
T1 sequence: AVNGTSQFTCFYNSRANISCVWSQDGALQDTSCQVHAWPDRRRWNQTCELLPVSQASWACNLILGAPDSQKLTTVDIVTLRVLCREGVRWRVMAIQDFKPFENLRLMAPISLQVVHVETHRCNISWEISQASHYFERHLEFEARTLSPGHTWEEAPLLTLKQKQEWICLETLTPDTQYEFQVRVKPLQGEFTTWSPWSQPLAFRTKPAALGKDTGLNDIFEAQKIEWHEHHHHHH

T2: human IL-2Rα (Uniprot P01589, aa22-217) with C-terminal avi tag and six-histidine tag (human, UniProt P01589 22-217)
T2 construct: range 22-217; Expressed in 293F cells; monomer peak collected; also called CD25
T2 sequence: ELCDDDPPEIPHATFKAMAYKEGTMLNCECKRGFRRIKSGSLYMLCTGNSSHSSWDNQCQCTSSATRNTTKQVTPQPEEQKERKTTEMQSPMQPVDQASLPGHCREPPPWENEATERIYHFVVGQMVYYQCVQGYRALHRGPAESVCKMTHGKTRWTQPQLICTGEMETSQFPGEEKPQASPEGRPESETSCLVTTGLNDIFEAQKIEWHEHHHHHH

T3: IL-2Rα (CD25) on primary human CD8+ CD25+ T cells (human, UniProt P01589 22-272)
T3 sequence (looked up): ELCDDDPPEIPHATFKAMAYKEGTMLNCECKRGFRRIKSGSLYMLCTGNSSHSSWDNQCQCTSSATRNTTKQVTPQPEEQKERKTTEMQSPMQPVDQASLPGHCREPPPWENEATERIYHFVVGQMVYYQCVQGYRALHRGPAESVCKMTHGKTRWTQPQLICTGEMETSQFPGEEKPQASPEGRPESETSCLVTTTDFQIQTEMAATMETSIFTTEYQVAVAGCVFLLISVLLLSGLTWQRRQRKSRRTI


Tests used:
[1] = biological target: T1, human IL-2Rβ (Uniprot P14784, aa27-240) …; experiment: BLI, Fc fusion on AHC sensor, soluble receptor
Protocol: (§1) The sensors were arranged according to the positions of the samples. The instrument settings were as follows: the operation procedures were Baseline, Loading −1 nm, Baseline, Association, and Dissociation; the run time of each procedure was dependent on the rates of association and dissociation; the rotation speed was 400 rpm, and the temperature was 30° C. The KD values were analyzed by ForteBio analysis software.

[2] = biological target: T2, human IL-2Rα (Uniprot P01589, aa22-217) …; experiment: BLI, Fc fusion on AHC sensor, soluble receptor
Protocol: as §1

[3] = biological target: T1, human IL-2Rβ (Uniprot P14784, aa27-240) …; experiment: BLI; legend: binding was very weak and the fit was poor
[4] = biological target: T3, IL-2Rα (CD25) on primary human CD8+ …; experiment: cell-based or functional assay

Binder	binding result [2]	Kd [1] [nM]	other results
Y001 (IL-2^WT-GSGS-FcLALA) (Fc fusion, Expressed in Expi293/HEK293 cells, protein A purified; also called IL-2-GSGS-FcLALA; IL-2^WT-FC) not shown	–	–	binding result [1]: no binding; Kd [2]: 11.2 nM
Y010 (IL-2^glycan4-GSGS-FcLALA) (Fc fusion, introduced N-glycosylation motif Y45N-M46-P47S, also called L010 as Fc fusion) APTSSSTKKTQLQLEHLLLDLQMILNGINNYKNPKLTRMLTFKFNMSKKATELKHLQCLEEELKPLEEVLNLAQSKNFHLRPRDLISNINVIVLELKGSETTFMCEYADETATIVEFLNRWITFSQSIISTLTGSGS[human IgG1 Fc with changes skipped]	no binding	–	–
Y002 (IL-2^3X-GSGS-FcLALA) (Fc fusion, Literature mutant IL-2^3X made and tested here as an Fc fusion; also called IL-2^3X-FC) APTSSSTKKTQLQLEHLLLDLQMILNGINNYKNPKLTDMLTFEFYMPKKATELKHLQCLERELKPLEEVLNLAQSKNFHLRPRDLISNINVIVLELKGSETTFMCEYADETATIVEFLNRWITFSQSIISTLTGSGS[human IgG1 Fc with changes skipped]	no binding	–	–
Y012 (IL-2^glycan6-GSGS-FcLALA) (Fc fusion, introduced N-glycosylation motif E62N-L63-K64T, also called L012 as Fc fusion) APTSSSTKKTQLQLEHLLLDLQMILNGINNYKNPKLTRMLTFKFYMPKKATELKHLQCLEENLTPLEEVLNLAQSKNFHLRPRDLISNINVIVLELKGSETTFMCEYADETATIVEFLNRWITFSQSIISTLTGSGS[human IgG1 Fc with changes skipped]	–	–	Kd [2]: 92.2 nM
Y011 (IL-2^glycan5-GSGS-FcLALA) (Fc fusion, introduced N-glycosylation motif K43N-F44-Y45T, also called YO11; L011 as Fc fusion) APTSSSTKKTQLQLEHLLLDLQMILNGINNYKNPKLTRMLTFNFTMPKKATELKHLQCLEEELKPLEEVLNLAQSKNFHLRPRDLISNINVIVLELKGSETTFMCEYADETATIVEFLNRWITFSQSIISTLTGSGS[human IgG1 Fc with changes skipped]	no binding	–	–
Y015 (IL-2^glycan9-GSGS-FcLALA) (Fc fusion, introduced N-glycosylation motif T41N-F42-K43S, also called L015 as Fc fusion) APTSSSTKKTQLQLEHLLLDLQMILNGINNYKNPKLTRMLNFSFYMPKKATELKHLQCLEEELKPLEEVLNLAQSKNFHLRPRDLISNINVIVLELKGSETTFMCEYADETATIVEFLNRWITFSQSIISTLTGSGS[human IgG1 Fc with changes skipped]	no binding	–	–
Y014 (IL-2^glycan8-GSGS-FcLALA) (Fc fusion, introduced N-glycosylation motif Q74N-S75-K76T, also called L014 as Fc fusion) APTSSSTKKTQLQLEHLLLDLQMILNGINNYKNPKLTRMLTFKFYMPKKATELKHLQCLEEELKPLEEVLNLANSTNFHLRPRDLISNINVIVLELKGSETTFMCEYADETATIVEFLNRWITFSQSIISTLTGSGS[human IgG1 Fc with changes skipped]	–	–	Kd [2]: 10.3 nM
Y008 (IL-2^glycan2-GSGS-FcLALA) (Fc fusion, introduced N-glycosylation motif R38N-M39-L40S, also called L008 as Fc fusion) APTSSSTKKTQLQLEHLLLDLQMILNGINNYKNPKLTNMSTFKFYMPKKATELKHLQCLEEELKPLEEVLNLAQSKNFHLRPRDLISNINVIVLELKGSETTFMCEYADETATIVEFLNRWITFSQSIISTLTGSGS[human IgG1 Fc with changes skipped]	–	–	Kd [2]: 42.3 nM
Y013 (IL-2^glycan7-GSGS-FcLALA) (Fc fusion, introduced N-glycosylation motif L72N-A73-Q74T, also called L013 as Fc fusion) APTSSSTKKTQLQLEHLLLDLQMILNGINNYKNPKLTRMLTFKFYMPKKATELKHLQCLEEELKPLEEVLNNATSKNFHLRPRDLISNINVIVLELKGSETTFMCEYADETATIVEFLNRWITFSQSIISTLTGSGS[human IgG1 Fc with changes skipped]	no binding	–	–
Y009 (IL-2^glycan3-GSGS-FcLALA) (Fc fusion, introduced N-glycosylation motif E68N-V69-L70S, also called L009 as Fc fusion) APTSSSTKKTQLQLEHLLLDLQMILNGINNYKNPKLTRMLTFKFYMPKKATELKHLQCLEEELKPLENVSNLAQSKNFHLRPRDLISNINVIVLELKGSETTFMCEYADETATIVEFLNRWITFSQSIISTLTGSGS[human IgG1 Fc with changes skipped]	no binding	–	–
Y059 (IL-2^truncate3-GSGS-FcLALA) (Fc fusion, also called L059 as Fc fusion) APTSSSTKKTQLQLEHLLLDLQMILNGINNYKNPKLTRMLTFKFYMPKKATELKHLQCLEEELKPLEEVLNLAQSANFHDLISNINVIVLELKGSETTFMCEYADETATIVEFLNRWITFSQSIISTLTGSGS[human IgG1 Fc with changes skipped]	–	146	–
Y017 (IL-2^hyb15BCL-GSGS-FcLALA) (Fc fusion, also called L017 as Fc fusion; B′C′ loop chimera) APTSSSTKKTQLQLEHLLLDLQMILNGINNYKNPKLTRMLTFKFYMPKKATELKHLQCLEEELKPLEEVLNLSGDASIHDLISNINVIVLELKGSETTFMCEYADETATIVEFLNRWITFSQSIISTLTGSGS[human IgG1 Fc with changes skipped]	–	88.7	–
Y058 (IL-2^truncate2-GSGS-FcLALA) (Fc fusion, also called L058 as Fc fusion) APTSSSTKKTQLQLEHLLLDLQMILNGINNYKNPKLTRMLTFKFYMPKKATELKHLQCLEEELKPLEEVLNLAGSKNFHDLISNINVIVLELKGSETTFMCEYADETATIVEFLNRWITFSQSIISTLTGSGS[human IgG1 Fc with changes skipped]	–	344	–
Y057 (IL-2^truncate1-GSGS-FcLALA) (Fc fusion, also called L057 as Fc fusion) APTSSSTKKTQLQLEHLLLDLQMILNGINNYKNPKLTRMLTFKFYMPKKATELKHLQCLEEELKPLEEVLNLAQSKNFHDLISNINVIVLELKGSETTFMCEYADETATIVEFLNRWITFSQSIISTLTGSGS[human IgG1 Fc with changes skipped]	–	234	–
Y060 (IL-2^truncate4-GSGS-FcLALA) (Fc fusion, also called L060 as Fc fusion) APTSSSTKKTQLQLEHLLLDLQMILNGINNYKNPKLTRMLTFKFYMPKKATELKHLQCLEEELKPLEEVLNLAQSANIHDLISNINVIVLELKGSETTFMCEYADETATIVEFLNRWITFSQSIISTLTGSGS[human IgG1 Fc with changes skipped]	–	763	–
Y082 (IL-2^glycan5.truncate2-2*(G4S)-FcLALA) (Fc fusion, introduced N-glycosylation motif K43N-F44-Y45T) APTSSSTKKTQLQLEHLLLDLQMILNGINNYKNPKLTRMLTFNFTMPKKATELKHLQCLEEELKPLEEVLNLAGSKNFHDLISNINVIVLELKGSETTFMCEYADETATIVEFLNRWITFSQSIISTLTGGGGSGGGGS[human IgG1 Fc with changes skipped]	no binding	–	binding result [3]: binds
Y081 (IL-2^glycan5.truncate1-2*(G4S)-FcLALA) (Fc fusion, introduced N-glycosylation motif K43N-F44-Y45T) APTSSSTKKTQLQLEHLLLDLQMILNGINNYKNPKLTRMLTFNFTMPKKATELKHLQCLEEELKPLEEVLNLAQSKNFHDLISNINVIVLELKGSETTFMCEYADETATIVEFLNRWITFSQSIISTLTGGGGSGGGGS[human IgG1 Fc with changes skipped]	no binding	260	CD25^- EC50/CD25^+ EC50 multiple [4]: 3.3 fold
Y056 (IL-2^glycan5.15BCL-2*(G4S)-FcLALA) (Fc fusion, introduced N-glycosylation motif K43N-F44-Y45T) APTSSSTKKTQLQLEHLLLDLQMILNGINNYKNPKLTRMLTFNFTMPKKATELKHLQCLEEELKPLEEVLNLSGDASIHDLISNINVIVLELKGSETTFMCEYADETATIVEFLNRWITFSQSIISTLTGGGGSGGGGS[human IgG1 Fc with changes skipped]	no binding	120	CD25^- EC50/CD25^+ EC50 multiple [4]: 46.9 fold
Y045 (IL-2^WT-2*(G4S)-FcLALA) (Fc fusion) not shown	–	–	Kd [2]: 50.3 nM; CD25^- EC50/CD25^+ EC50 multiple [4]: 467 fold
Y040 (IL-2^3X-2*(G4S)-FcLALA) (Fc fusion) APTSSSTKKTQLQLEHLLLDLQMILNGINNYKNPKLTDMLTFEFYMPKKATELKHLQCLERELKPLEEVLNLAQSKNFHLRPRDLISNINVIVLELKGSETTFMCEYADETATIVEFLNRWITFSQSIISTLTGGGGSGGGGS[human IgG1 Fc with changes skipped]	no binding	–	CD25^- EC50/CD25^+ EC50 multiple [4]: 8.4 fold
Y038 (IL-2^glycan5-2*(G4S)-FcLALA) (Fc fusion, introduced N-glycosylation motif K43N-F44-Y45T) APTSSSTKKTQLQLEHLLLDLQMILNGINNYKNPKLTRMLTFNFTMPKKATELKHLQCLEEELKPLEEVLNLAQSKNFHLRPRDLISNINVIVLELKGSETTFMCEYADETATIVEFLNRWITFSQSIISTLTGGGGSGGGGS[human IgG1 Fc with changes skipped]	no binding	–	binding result [1]: no binding
